# In the supplement of paper PMC10185492:
# The other results are listed elsewhere or left out. These are enrichments in a pooled selection; single values are uncertain.
# Tested on: SARS-CoV-2 3CLpro (nsp5)
# Assay: substrate phage enrichment score (protease-eluted vs HEPES control, +1 offset) (ratio); higher = better cleaved substrate
# Conditions: selection round: 4; protease elution time: 15 min
# Method: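 Random heptapeptide substrate phage display (M13 pIII fusion, heptapeptide between an N-terminal biotinylated AviTag GLNDIFEAQKIEWHE and pIII; phages immobilised on streptavidin) eluted by cleavage with 50 nM protease in 20 mM HEPES at 37 °C. Selected phages were NGS sequenced, and the enrichment score is (reads in protease sample + 1)/(reads in HEPES blank-selection control + 1).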
row,Substance,substrate phage enrichment score
1,RPGLQSA,11
2,LNAVDCR,3.4
3,TRSKVNG,> 24
4,RACREFR,1.4
5,EGPSEKT,1.4
6,RQRCDLH,3.69
7,DRWMRDE,2.2
8,EPDMPMG,> 27
9,RTEPSGR,> 28
10,PAMPYVR,> 37
11,NNAAAHH,1.35
12,CLRGTAE,> 22
13,RHVEPNG,6.67
14,GEELSSK,1.82
15,VPPAELT,1.2
16,YCSSRSA,1.78
17,AQKQASE,3
18,YPSENAQ,1
19,EKYPCIG,> 21
20,SYQCHLN,1.27
21,PKWVCSE,5.71
22,HPYQLNE,> 23
23,DTAAAHH,0.324
24,EGKPYLQ,> 22

row,Substance,substrate phage enrichment score
1,VAVRLQS,> 31
2,RTFSRLQ,> 94
3,KGSPTLQ,> 140
4,TQVSQLQ,> 23
5,VRPHINI,0.712
6,SGLPTLQ,> 24
7,ATRSRLQ,> 211
8,RSDEDLT,10
9,MRPTKHT,8.25
10,TPAGSRR,3.17
11,PNEDGCR,1.6
12,QLPSTNR,> 35
13,YGQRRPE,0.146
14,SQDTWTG,1.88
15,DSIQLQS,11.5
16,CILQGGS,33
17,IGGSAAA,0.368
18,ISQARER,> 21
19,NAGFMTR,> 22
20,KCYCVLQ,> 32
21,SERKPPQ,1.33
22,SGRAIMQ,> 32
23,GSRLGNP,9.67
24,EQSTIRG,2.83

row,Substance,substrate phage enrichment score
1,KTNSSER,> 25
2,ITAAHHH,0.977
3,PAQDCKR,> 26
4,AHFLGPQ,> 25
5,AYHQPMT,0.714
6,PSGGARQ,1.69
7,APGASGQ,4
8,RLNHCGA,0.826
9,AAAPCVN,0.263
10,ARDSWAW,4
11,CEQLDVK,1.7
12,TRCRSDG,0.429
13,SETTILQ,> 30
14,GTSTQLH,> 56
15,CLSSQAR,2.83
16,LFLNRYQ,> 31
17,HLDGKDR,> 21
18,KAGLRQN,0.103
19,VNDCNPS,2.75
20,QPTVATQ,> 24
21,SLNQSGN,0.857
22,LLPGHPK,2.25
23,CPKTHLQ,> 22
24,LRNGARA,5.78

row,Substance,substrate phage enrichment score
1,GSRVLCR,> 29
2,NYSFDLN,> 32
3,FTAECAS,> 36
4,HCLLHAD,11
5,VGTSCNA,> 22
6,GTAGCWR,1.5
7,RMVCPET,1.47
8,QHNSESS,0.35
9,SSCNFRR,8.67
10,YQAAHHH,0.516
11,CFEGVLN,> 32
12,SSNCSLS,1.18
13,RPTSKSP,> 36
14,NRMPRSP,0.611
15,YSDCQCR,> 33
16,GCADNVR,> 24
17,VAAHHHH,0.65
18,DARWEIY,> 25
19,PVTQAIP,> 78
20,MDSRHGY,> 29
21,CSKLRTH,3.8
22,QCSYWVT,6.33
23,IGCNRRT,0.929
24,AKGPLGT,1.73

row,Substance,substrate phage enrichment score
1,CMAAHHH,0.865
2,RNRNNKN,8
3,TRGCLQG,4
4,AVNLCGG,> 33
5,TAQTNRL,0.85
6,VNEWRST,> 25
7,TNCVNKG,0.667
8,TASGARG,> 130
9,NQLFNAG,> 52
10,HEQAPNK,> 31
11,DHAAAHH,0.222
12,RKYCVPD,0.167
13,LTIEKQQ,0.917
14,WGSQDTQ,> 26
15,CSGNKPP,2
16,QAGALHD,0.46
17,SRYQRSG,1.38
18,PTREAAH,18.8
19,CSYRKPS,> 28
20,HHHHGAA,0.785
21,SLSCGGL,2.94
22,LDHSGVA,> 34
23,ESRARLQ,> 88
24,KHGNLSE,> 45

row,Substance,substrate phage enrichment score
1,LRDAVTI,1.54
2,SMQCIGP,> 78
3,NRGAYHS,5.21
4,KRQPPGA,> 142
5,ATKGDRL,1.2
6,TTTKRCS,13
7,RLMSDCR,4
8,KEEYQTK,0.474
9,NPSYENR,5
10,SSQDNLN,1.67
11,NHFGELK,0.278
12,PTRWSAR,2.88
13,SEAKASA,1.13
14,TKDESLF,1.85
15,YMQSPSQ,3.17
16,SSQPCRQ,> 687
17,ACSVGMQ,> 38
18,HALLQSG,> 48
19,PKECPTS,7.67
20,SPTPVLQ,61.5
21,VEPPLNF,2.07
22,ATSAHHH,1.5
23,RVADTES,11
24,PMAPSTH,0.789

row,Substance,substrate phage enrichment score
1,HKTLLSA,> 26
2,GDDKFRI,6.73
3,STNGGYS,0.407
4,VKCSLCD,> 57
5,VCFQGGS,1.69
6,NECVNYR,0.375
7,EKPSITS,> 22
8,SYLRGCA,> 22
9,NTWPSLQ,4.2
10,SQNEHLQ,1.27
11,DLLRGQC,> 21
12,VETPDSL,0.704
13,PCSEAAH,8.5
14,EVKATLH,16.3
15,TEFTLND,0.588
16,SEGVGIP,> 31
17,RDAAAHH,1
18,CTKWSAG,> 22
19,SAAAPNH,0.929
20,CKRTMLQ,> 34
21,NGLSGSN,4.43
22,NTPSTKD,42.7
23,TERADTL,> 26
24,PRNESCR,> 22

row,Substance,substrate phage enrichment score
1,CPVKQRD,2
2,MNQSLLQ,> 30
3,HFPRCTA,4.88
4,WPAAQLQ,> 76
5,KNERYRS,0.5
6,QVRETPI,3
7,DQLCEPR,> 37
8,SRLQYGS,> 29
9,QAPTRPN,14
10,EKRTRLQ,> 22
11,ARTGTPP,2.95
12,MRPAVKS,8.83
13,HTYRECL,5.25
14,PNHHKEC,0.8
15,CAELKYQ,> 41
16,VGQSYSP,> 41
17,MSDPRLK,> 22
18,PRAVLQC,> 141
19,TEPAHLR,> 21
20,NPPMQGW,> 28
21,QGAAHHH,2.43
22,AKYQPLR,> 53
23,LSHSLGK,> 21
24,YLTESDG,> 35

row,Substance,substrate phage enrichment score
1,SAAVHHH,1.27
2,TESSCNL,2.14
3,EYFQGGS,0.7
4,SDSPIRY,2.44
5,PTAYGLQ,2
6,EARPLQG,> 21
7,KKSASLN,> 159
8,DSKLYFQ,12.5
9,RSKPHSP,1
10,TTSTGLR,> 35
11,FTTNSAH,1.69
12,NKEDNQG,> 21
13,NATSVLN,2
14,QKGYRPG,> 33
15,LTGVNGA,0.293
16,QGVYLQG,> 26
17,NPPQWQY,> 21
18,WPEHVPN,> 29
19,NQCSHMT,11.5
20,DASTRLQ,76.5
21,ENDKRTT,> 26
22,QQGSFTC,2.67
23,SGAPGCR,15.5
24,YADVNAW,> 28

row,Substance,substrate phage enrichment score
1,RTRSCLQ,> 230
2,CPLRPVQ,2.57
3,LQSHDTR,2.36
4,SWEEKCG,1.41
5,ACPTGVH,> 26
6,PSSHQKS,> 67
7,AHTETGD,> 51
8,SCTPLTR,1.3
9,NESNVKI,1.65
10,LREVQAK,1.21
11,IKSPNCE,0.0571
12,HRERLSS,0.529
13,TDAAHHH,0.432
14,LRVETHD,4.46
15,LNRTWEP,> 22
16,PQVCEPN,1.4
17,VKTLYGK,> 26
18,SNRSVLQ,13.2
